# Laboratory results published in paper PMC12390733.
# By UniProt entry, the sequences of proteins in these tests, tags left out. Where a name states a change or a piece, a line headed by the entry shows the natural chain unless it says otherwise. Chains listed by the source or under a name are the forms on record and can include a tag or linker.
# UniProt Q9NVH1: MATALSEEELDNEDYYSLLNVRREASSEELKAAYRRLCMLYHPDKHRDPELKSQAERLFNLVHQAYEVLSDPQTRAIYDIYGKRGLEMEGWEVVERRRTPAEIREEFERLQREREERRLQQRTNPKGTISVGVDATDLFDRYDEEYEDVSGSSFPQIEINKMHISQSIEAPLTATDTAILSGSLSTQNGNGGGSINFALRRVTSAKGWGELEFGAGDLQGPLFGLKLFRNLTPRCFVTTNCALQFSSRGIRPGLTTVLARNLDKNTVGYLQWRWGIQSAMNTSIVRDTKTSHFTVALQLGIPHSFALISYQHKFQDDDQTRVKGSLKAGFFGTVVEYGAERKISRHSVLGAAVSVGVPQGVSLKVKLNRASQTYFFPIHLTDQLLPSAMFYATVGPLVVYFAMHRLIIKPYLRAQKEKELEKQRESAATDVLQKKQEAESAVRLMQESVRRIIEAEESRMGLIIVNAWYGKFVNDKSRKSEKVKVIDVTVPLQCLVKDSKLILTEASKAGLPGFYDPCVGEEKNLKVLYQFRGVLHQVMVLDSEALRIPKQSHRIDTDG
# Myc-tagged DNAJC11 mutant lacking aa 201 to 400 (Q9NVH1, form named): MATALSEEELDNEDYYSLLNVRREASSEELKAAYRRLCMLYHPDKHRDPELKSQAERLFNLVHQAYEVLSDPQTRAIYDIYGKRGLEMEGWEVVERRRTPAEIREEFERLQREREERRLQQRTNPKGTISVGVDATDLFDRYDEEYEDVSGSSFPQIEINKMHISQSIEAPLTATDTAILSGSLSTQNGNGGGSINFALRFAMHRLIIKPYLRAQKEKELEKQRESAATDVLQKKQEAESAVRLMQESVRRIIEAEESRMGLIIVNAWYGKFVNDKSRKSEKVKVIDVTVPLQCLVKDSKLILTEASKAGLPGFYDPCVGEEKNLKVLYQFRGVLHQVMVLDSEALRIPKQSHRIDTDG
# Results are given in words; binding and its absence hold for the method and conditions named. In cells and extracts the contact can be indirect. Some binding calls cover weakened binding; strength is not graded here.
# Molecular target: GFP-tagged SARS-CoV-2 nonstructural protein 3 (NSP3) (SARS-CoV-2) (UniProt P0DTD1)
# Experiment: co-IP
row,Substance,binding
1,Myc-tagged DNAJC11 mutant lacking aa 401 to 560 (from UniProt Q9NVH1 1-400) (domain or fragment),binds
2,Myc-tagged DNAJC11 mutant lacking aa 1 to 200 (from UniProt Q9NVH1 201-559) (domain or fragment),no binding
3,Myc-tagged DNAJC11 mutant lacking aa 201 to 400 (from UniProt Q9NVH1 1-559),binds
